The supplement of paper PMC3334620
In all, about 33,000 sequences were measured (“E-score (-0.5 to 0.5)”: median about -0.036, highest 2% from about 0.37 on). Some of the results follow.

Target: T1, Yer064c (UniProt P40041)
T1 sequence: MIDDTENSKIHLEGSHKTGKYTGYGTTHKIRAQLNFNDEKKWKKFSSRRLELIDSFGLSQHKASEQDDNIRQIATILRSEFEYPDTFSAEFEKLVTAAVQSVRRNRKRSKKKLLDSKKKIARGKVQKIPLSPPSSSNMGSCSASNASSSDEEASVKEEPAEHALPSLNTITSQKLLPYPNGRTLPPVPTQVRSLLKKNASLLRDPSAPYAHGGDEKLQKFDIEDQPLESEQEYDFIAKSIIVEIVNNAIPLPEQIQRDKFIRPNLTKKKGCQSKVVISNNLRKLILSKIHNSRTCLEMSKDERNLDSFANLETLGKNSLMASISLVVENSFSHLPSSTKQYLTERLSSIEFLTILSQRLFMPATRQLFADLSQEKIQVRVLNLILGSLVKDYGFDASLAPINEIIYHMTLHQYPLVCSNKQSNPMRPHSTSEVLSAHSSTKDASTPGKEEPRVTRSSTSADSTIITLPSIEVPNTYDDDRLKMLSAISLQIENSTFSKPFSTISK
Experiment: PBM E-score (8-mer binding enrichment) (E-score (-0.5 to 0.5)); higher = stronger / more preferred TF binding; most listed sequences are background and not binding sites
Settings: protein concentration: 200 nM; construct: GST-full length
Procedure: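 Universal 'all 10-mer' protein binding microarrays (Agilent AMADID 015681) probed with GST-tagged S. cerevisiae TFs (full-length or DBD) made by in vitro transcription/translation (PURExpress), about 100-200 nM. Bound TF was detected with fluorescent anti-GST. Each ungapped 8-mer (which stands for itself and its reverse complement) is scored by the PBM enrichment score (E-score), a modified Wilcoxon-Mann-Whitney statistic from -0.5 to +0.5, computed with the Universal PBM Analysis Suite. Scale: above 0.35 generally sequence-specific binding.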

Point of comparison: GATGAAAA, “PBM E-score” value -0.134. Against it:
- ACCAGGCT — lower, -0.143
- GGCCACTA — lower, -0.212
- CAACCCAA — higher, -0.0252
- GCCCCGTA — lower, -0.213
- TGCCCACA — higher, -0.106
- ATGAGTAG — higher, 0.308
- CGAGACAG — higher, 0.0985
- ACGTTGTC — lower, -0.226
- AATAAACT — higher, -0.0363
- GCCCTAGA — lower, -0.316
- CATGAGCG — higher, 0.0747
- GACCTATC — lower, -0.215
- GAAAGTTA — higher, 0.137
- AAGCACGC — higher, -0.0139
- ATGGTCCG — higher, -0.102
- CCCCCCGA — higher, 0.0138
- ACATTTCG — lower, -0.187
- GTCCTGCA — higher, 0.0274
- CAAGAAAC — higher, 0.0684
- CGGTGTTA — higher, 0.152
- ATGCGGGC — lower, -0.206
- ACATCAGT — higher, 0.094
- ATGCACGC — higher, -0.0794
- CGTACAAC — higher, -0.082
- GATCGCCC — lower, -0.217
- ACTAGGTC — higher, 0.109
- TCTTATCA — higher, 0.118
- ATTACCCA — higher, 0.232
- CGATTTAC — lower, -0.156
- AATGTTTA — higher, 0.12
- CGACGGCC — lower, -0.258
- ACGAGCCG — higher, 0.0295
- ACAAGCTA — higher, -0.124
- AGATTGGG — higher, -0.00212
- CCTTCACC — lower, -0.171
- TGAATTAA — higher, 0.14
- ACGGGGTG — higher, -0.106
- AGGAATTC — lower, -0.259
- AAAACGCT — lower, -0.156
- CAACTATA — higher, 0.157
- ACCGTCCA — lower, -0.192
- CACCGCGA — higher, -0.106
- CAACGGTG — higher, -0.106
- ATGCAGCA — higher, -0.0338
- AAAATTTC — lower, -0.25
- ACGTCAAT — higher, -0.0768
- AACGGTCG — higher, -0.0839
- CCTCGGCG — lower, -0.139
- AGGAGCCC — lower, -0.156
- AAGTCGAC — higher, 0.169
- TGGGCTAA — higher, -0.0729
- AAAAAAAG — higher, 0.122
- AAAACACA — higher, 0.0169
- CCTCAGTC — higher, 0.326
- AGGGCGCG — lower, -0.182
- AGCAATTC — higher, -0.128
- AAATGCTC — lower, -0.141
- CTTCTTAA — higher, 0.0509
- CTTCAACA — higher, 0.11
- CGCCCGAA — lower, -0.17
- AAACTCAG — higher, 0.0269
- CCACCATC — higher, -0.033
- ATTCCATA — higher, -0.0291
- GGAGAAAC — higher, -0.0961
- TCACCGGA — higher, 0.133
- CCCCTTTC — lower, -0.292
- CCCCACAC — lower, -0.211
- CAAGAGAC — higher, 0.017
- ATCGCTGA — higher, 0.0828
- CGCGGCGC — lower, -0.213
- ACATAGAT — higher, 0.0632
- ATGTGATG — higher, -0.0936
- ATCAAAGC — higher, -0.0573
- ACAGCTGT — higher, 0.0609
- TAGCGAAA — higher, 0.0958
- TAGCTACA — higher, -0.0289
- TCGGCCGA — higher, 0.094
- AGCCCAGG — lower, -0.285
- TCCAGACA — higher, -0.101
- GACTTGTA — higher, 0.25
- CCTCCTCA — lower, -0.164
- AACTGAGT — higher, 0.304
- AATGGTAT — lower, -0.148
- AGACACGC — higher, -0.105
- GTAACTCA — higher, 0.277
- GAGACGCC — lower, -0.324
- ACACTGCG — lower, -0.273
- CAAACGGA — higher, -0.103
- AAGGAGGG — lower, -0.196
- CTACCTCC — higher, 0.0844
- AAAGTGCA — higher, 0.0468
- AAAAAGGC — higher, 0.0801
- ACCCATAC — higher, 0.0154
- ACTGCCCT — higher, -0.0556
- AATCTCGA — higher, 0.0793
- CGTGGCCC — lower, -0.311
- CGGATAAG — higher, -0.0616
- GGGGTGCA — lower, -0.291
- CGACTGCG — higher, 0.167
- ACCATATA — higher, 0.0294
- ACCAAATG — higher, -0.0502
- CGAAACAA — higher, 0.163
- ACCCTAGT — higher, 0.0625
- GTCATGAC — higher, 0.432
- AAGAGCGA — higher, -0.0506
- GAAACTCA — higher, 0.223
- GCAATCCA — higher, 0.131
- ATTTCGAC — higher, -0.0682
- ACCGCTCA — higher, -0.0304
